# Measured values published in PubChem BioAssay AID493131 (Broad Institute, 2011).
# Screen size: about 340,000 compounds; about 3,300 (0.97%) were called active. This list was built around the results that the source calls inconclusive (neither active nor inactive); the mix of calls is not that of the screen.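 How the source made its calls: active means mean activation above about 17%, with every replicate also reaching it (limit read from the data, passing the limit was not always enough); inconclusive means only one of the two conditions met; inactive means the rest.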
# Target: Protein FosB (Mus musculus) (UniProt P13346)
# Chain of UniProt P13346 (P13346 whole entry, looked up): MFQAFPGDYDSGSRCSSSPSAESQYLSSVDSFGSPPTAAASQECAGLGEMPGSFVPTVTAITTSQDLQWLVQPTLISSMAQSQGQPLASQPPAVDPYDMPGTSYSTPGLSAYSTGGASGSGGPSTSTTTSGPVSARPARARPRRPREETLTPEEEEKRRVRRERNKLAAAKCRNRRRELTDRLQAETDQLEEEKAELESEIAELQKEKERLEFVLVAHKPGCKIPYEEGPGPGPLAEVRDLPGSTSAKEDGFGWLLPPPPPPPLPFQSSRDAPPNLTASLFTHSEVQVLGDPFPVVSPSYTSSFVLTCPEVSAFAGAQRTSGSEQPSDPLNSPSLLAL
# Assay: enhancers of mouse delta FosB DNA binding – biochemical, fluorescence polarization, TAMRA-CDK5 oligo, single point, primary screen (AID 493131);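 further: fluorescence polarization rise as delta FosB binds a TAMRA Cdk5 AP-1 oligo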
# Settings: purified delta FosB, at 25 µM, hits give high values, percent of positive-control signal above neutral wells
row,Compound,activation
1,Oc1ccc(CCNc2c3ccccc3nc3ccccc23)cc1O,active: 70.9%
2,Cc1ccc(/C=N/Nc2ccnc3cc(Cl)ccc23)c(C)c1,active: 49.4%
3,COc1cc(/C=C2/SC(=S)N(c3c(C)n(C)n(-c4ccccc4)c3=O)C2=O)ccc1O,inconclusive: 16.1%
4,COc1cc(/C=N/Nc2nn3cnnc3c3ccccc23)cc(OC)c1OC,inconclusive: 16.6%
5,COc1ccccc1-c1c(C(F)(F)F)oc2cc(OS(C)(=O)=O)ccc2c1=O,inactive: -9.58%
6,CCN1CCN(C(=O)c2ccc(Cn3c(=O)[nH]c4cc(OC)c(OC)cc4c3=O)cc2)CC1,inconclusive: 20.6%
7,NC(=O)COC(=O)c1ccccc1Oc1ccccc1,inactive: -3.26%
8,CCN(CC)CCNC(=O)CCc1c(C)nc2c(c(C)nn2-c2ccc(C)c(C)c2)c1C,active: 19.6%
9,CC(=O)c1ccc(N2CCN(C(=S)Nc3ccc(Cl)c(Cl)c3)CC2)cc1,inconclusive: 19.8%
10,COc1cccc(N2CC(O)=C(c3nc4ccccc4s3)C2=N)c1,inactive: -0.98%
11,CN(C)CCCN(C(=O)COc1ccccc1)c1nc2cc3c(cc2s1)OCO3,inconclusive: 18%
12,COc1ccc(C(N)=S)c(OC)c1,inactive: 3.56%
13,COc1ccc(NC(=O)COC(=O)c2cc(OC)c(OC)cc2NC(=O)c2ccco2)cc1OC,inconclusive: 16.5%
14,O=C(CCc1nc(-c2ccccc2)c(-c2ccccc2)o1)OCc1ccc(Br)cc1,inactive: -5.29%
15,COc1ccc(C(=O)NCc2ccccn2)cc1,inactive: -10.7%
16,O=C(Cc1cccs1)N/N=C/C(Br)=C/c1ccccc1,inconclusive: 16.1%
17,Cc1nnc(-c2cccc(Br)c2)c2cn(-c3ccccc3Cl)nc12,inactive: -16.8%
18,CCOC(=O)N1CCN(C(=O)CN2C(=O)COc3ccc(C(C)(C)C)cc32)CC1,inactive: -4.44%
19,CCOc1ccc(N=C2NC(=O)S/C2=C\c2ccc(OC)cc2)cc1,inconclusive: 20.3%

row,Compound,activation
1,Cc1ccc(-c2noc(CCC(=O)NC3CCCc4ccccc43)n2)cc1 (stereo unspecified),inconclusive: 18.1%
2,Cc1ccc(NC(=O)[C@H](Cc2c[nH]c3ccccc23)NC(=O)[C@@H]2Cc3ccccc3CN2)c(C)c1,active: 33.9%
3,CCOC(=O)C(=O)c1c(-c2ccccc2)nc2ccccn12,inactive: -0.246%
4,CC1(C)Cc2ccccc2-c2nnc(SCC(=O)N3CCc4ccccc43)n21,inconclusive: 16.4%
5,Cc1ccc(S(=O)(=O)c2nc(Nc3ccccc3C#N)sc2Cl)cc1,inactive: -5.41%
6,O=C(Nc1ccccc1C(=O)OCC(=O)c1c[nH]c2ccccc12)c1ccco1,inconclusive: 18.8%
7,COc1cc(O)c(C(CC(=O)N2CCN(c3ccccc3)CC2)c2ccc3c(c2)OCO3)c(OC)c1 (stereo unspecified),inactive: -5.86%
8,CC1(C)OC(=O)N(c2ccccc2)C12C=Cc1c(ccc3ccccc13)O2 (stereo unspecified),inactive: -0.957%
9,O=[N+]([O-])c1ccc(NC(=S)NCCc2ccc(Cl)cc2)cc1,inactive: -9.2%
10,Cc1nnc(NC(=O)CSc2nnc3scc(-c4ccc(C)c(C)c4)n23)s1,inconclusive: 29.3%
11,O=C(Nc1ccc([N+](=O)[O-])cc1)Nc1ccc(OC(F)F)c(Cl)c1,inactive: -2.2%
12,Cc1cc(C2N=C(N)Nc3nc4ccccc4n32)c(C)n1-c1ccccc1Cl (stereo unspecified),active: 75.6%
13,Cc1ccccc1NC(=O)Cn1c(=O)n(Cc2ccccc2)c(=O)c2c(C)c(C)sc21,inconclusive: 17.7%
14,COC(=O)c1sccc1NC(=O)COc1cccc(C)c1,inactive: -18.4%
15,CCc1nc2nc(C)c(NS(=O)(=O)c3ccc(Cl)cc3)c(=O)n2[nH]1,inactive: 2.42%
16,Cc1ccc(C(=O)NNC(=O)CSc2nnc3c(n2)[nH]c2ccc(F)cc23)cc1,inactive: -0.588%
17,COC(=O)CCC(=O)c1oc2ccc(Br)cc2c1N,inactive: -4.96%
18,CCCc1nnc(NC(=O)Cn2c(=O)sc3ccccc32)s1,inconclusive: 22.3%
19,Cc1ccc(-n2ncc(-c3nnc(SCC(=O)NC4CCCC4)o3)c2N)cc1C,inconclusive: 22.3%

row,Compound,activation
1,CC1CC(Nc2ccccc2)c2ccccc2N1C(=O)c1ccco1 (stereo unspecified),inactive: -7.04%
2,Cc1cc2oc3c(c(=O)c2cc1C)C(c1ccc(F)cc1)N(CCCN1CCOCC1)C3=O (stereo unspecified),inconclusive: 21.4%
3,CCOC(=O)c1c(C)[nH]c(C(=O)C(C)OC(=O)c2oc3ccccc3c2COC)c1C (stereo unspecified),inactive: -2.2%
4,O=C(CCNC(=O)c1ccc(Br)cc1)Nc1ccc(S(=O)(=O)N2CCCCC2)cc1,inconclusive: 16.8%
5,CC1(C)CC2(CCO1)OC(=O)CC2C(=O)Nc1ccccc1Cl (stereo unspecified),inactive: 5.2%
6,O=C(NCCNC(=O)c1cc(OCC(F)(F)F)ccc1OCC(F)(F)F)Nc1ccc(OC(F)(F)F)cc1,active: 38.1%
7,O=C(CSc1nnnn1-c1ccccc1)Nc1ncc2c(n1)CC(c1ccccc1)CC2=O (stereo unspecified),inconclusive: 21.4%
8,CSCCC(NS(=O)(=O)c1ccc(Cl)cc1)C(=O)OCC(=O)N(C(C)C)C(C)C (stereo unspecified),inactive: -11.2%
9,Cc1cc2c(c(SCC(=O)NCc3ccc(Cl)cc3)n1)C(=O)OC2,inconclusive: 17.6%
10,OC(CN1CCN(c2ccccn2)CC1)Cn1c2ccc(Cl)cc2c2cc(Cl)ccc21 (stereo unspecified),inconclusive: 17.6%
11,COC(=O)Nc1nc2c(C)cccc2s1,inactive: -13.9%
12,Cc1ccc(C)c(NC(=O)/C(C#N)=C/c2cn(CC(=O)NCc3ccco3)c3ccccc23)c1,inactive: -6.81%
13,CCOC(=O)c1c(CSC(=N)N)n(-c2ccc(Br)cc2)c2cc(Br)c(OC(C)=O)cc12,inconclusive: 17.5%
14,COc1ccc2c(c1)[nH]c(=O)c1sc3ccccc3c12,inconclusive: 16.3%
15,COc1ccc(Nc2c3ccccc3nc3ccccc23)cc1,active: 59.8%
16,CN(C(=O)CSc1nc2ccccc2n1CCc1ccccc1)C1CCS(=O)(=O)C1 (stereo unspecified),inactive: -14.6%
17,COc1c(Cl)cc(C(=O)Nc2ccc(Cl)cn2)cc1Cl,inconclusive: 20.8%
18,CC(=O)n1cc(/C=N/NC(N)=S)c2ccccc21,inconclusive: 16.1%
